# Results taken from article PMC4701469.
# Amino acid sequences for entries named in this document (tags omitted).
# UniProt P09874: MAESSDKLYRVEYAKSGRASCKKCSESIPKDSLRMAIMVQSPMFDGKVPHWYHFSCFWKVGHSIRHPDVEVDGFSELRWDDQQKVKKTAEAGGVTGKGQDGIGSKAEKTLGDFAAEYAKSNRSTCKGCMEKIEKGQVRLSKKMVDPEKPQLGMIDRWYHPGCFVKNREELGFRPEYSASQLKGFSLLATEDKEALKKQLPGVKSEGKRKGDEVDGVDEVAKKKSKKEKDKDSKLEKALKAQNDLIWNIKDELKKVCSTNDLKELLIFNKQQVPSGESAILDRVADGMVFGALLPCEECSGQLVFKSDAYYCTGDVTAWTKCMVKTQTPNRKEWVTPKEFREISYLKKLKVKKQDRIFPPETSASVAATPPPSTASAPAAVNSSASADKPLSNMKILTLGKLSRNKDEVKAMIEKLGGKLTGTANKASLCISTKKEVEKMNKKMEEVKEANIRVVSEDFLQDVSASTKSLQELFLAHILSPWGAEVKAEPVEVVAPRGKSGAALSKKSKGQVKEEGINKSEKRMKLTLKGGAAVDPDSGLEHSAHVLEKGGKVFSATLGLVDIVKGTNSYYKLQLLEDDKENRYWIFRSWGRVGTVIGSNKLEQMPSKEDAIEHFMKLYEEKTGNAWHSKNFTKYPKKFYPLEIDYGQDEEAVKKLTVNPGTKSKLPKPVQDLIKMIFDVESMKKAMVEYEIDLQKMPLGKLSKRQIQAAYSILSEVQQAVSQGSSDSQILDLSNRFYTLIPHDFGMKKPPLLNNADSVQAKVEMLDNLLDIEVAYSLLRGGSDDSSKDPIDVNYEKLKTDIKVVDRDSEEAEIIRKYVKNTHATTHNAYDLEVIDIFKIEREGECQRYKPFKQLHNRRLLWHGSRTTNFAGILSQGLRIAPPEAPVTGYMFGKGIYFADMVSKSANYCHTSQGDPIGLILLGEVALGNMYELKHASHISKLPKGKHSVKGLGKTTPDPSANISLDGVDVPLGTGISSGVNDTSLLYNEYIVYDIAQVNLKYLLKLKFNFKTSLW
# UniProt P18887: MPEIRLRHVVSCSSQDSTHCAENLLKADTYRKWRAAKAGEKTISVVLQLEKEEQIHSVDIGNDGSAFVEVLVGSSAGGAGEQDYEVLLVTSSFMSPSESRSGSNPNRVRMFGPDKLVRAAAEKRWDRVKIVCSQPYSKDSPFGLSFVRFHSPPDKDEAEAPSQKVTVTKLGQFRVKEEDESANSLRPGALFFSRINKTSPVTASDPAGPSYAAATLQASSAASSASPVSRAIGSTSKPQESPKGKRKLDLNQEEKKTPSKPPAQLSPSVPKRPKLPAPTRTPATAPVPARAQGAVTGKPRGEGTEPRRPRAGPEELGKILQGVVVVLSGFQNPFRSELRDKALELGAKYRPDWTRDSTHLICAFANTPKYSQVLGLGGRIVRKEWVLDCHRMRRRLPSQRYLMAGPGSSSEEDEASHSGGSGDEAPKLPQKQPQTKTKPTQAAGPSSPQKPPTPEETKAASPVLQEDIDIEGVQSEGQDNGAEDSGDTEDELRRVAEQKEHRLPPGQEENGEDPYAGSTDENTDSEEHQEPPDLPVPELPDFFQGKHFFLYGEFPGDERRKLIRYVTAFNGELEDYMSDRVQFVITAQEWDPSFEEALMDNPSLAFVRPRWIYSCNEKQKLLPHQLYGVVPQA
# UniProt P38936: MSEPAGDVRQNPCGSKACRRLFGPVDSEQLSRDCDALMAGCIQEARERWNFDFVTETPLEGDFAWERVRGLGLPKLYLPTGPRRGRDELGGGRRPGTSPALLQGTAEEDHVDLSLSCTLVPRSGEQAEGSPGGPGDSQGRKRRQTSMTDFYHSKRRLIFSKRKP
# These are yes or no findings as the source states them, for the method shown. In cells and extracts the contact can be indirect. Some entries that bind do so weakly or less than the wild type.
# Assays:
# [1] = target: GST-tagged full-length PARP-1 (FL) (UniProt P09874); assay: pull-down; GSH-agarose beads; 1 mg extract of HeLa cells co-transfected with GST-PARP-1 constructs and p21-GFP, treated with 25 μM MNNG (for XRCC1 and pol ß also with 10 μM Olaparib: reduced); 50 mM Tris-HCl pH 8.0, 2.5 mM MgCl2, 75 mM KCl, 5 mM DTT; 1 h, 4°C; Western blot
# [2] = target: Poly(ADP-ribose) polymerase-1 (PARP-1), endogenous in LF-1 human fibroblasts (human (endogenous in LF-1)) (UniProt P09874); assay: co-IP; monoclonal anti-PARP-1 (F1-23) pre-bound to protein-G magnetic beads; nuclear extracts (RIPA) of LF-1 fibroblasts treated 30 min with 25 μM MNNG alone (for XRCC1 and pol ß also after pre-treatment with 10 μM Olaparib: reduced); 3 h, 4°C; Western blot
# [3] = target: auto-PARylated PARP-1, endogenous in MNNG-treated LF-1 human fibroblasts (human (endogenous in LF-1)) (UniProt P09874); assay: co-IP; polyclonal anti-PAR antibody pre-bound to protein-G magnetic beads; nuclear extracts (RIPA) of quiescent LF-1 fibroblasts, untreated or treated 30 min with 25 μM MNNG; 3 h, 4°C; Western blot for PAR, PARP-1, p21
# [4] = target: Poly(ADP-ribose) polymerase-1 (PARP-1), endogenous in LF-1 human fibroblasts (human (endogenous in LF-1)) (UniProt P09874); assay: condition: only cells pre-treated with 10 μM Olaparib before MNNG; co-IP; monoclonal anti-PARP-1 (F1-23) pre-bound to protein-G magnetic beads; nuclear extracts of LF-1 fibroblasts pre-treated with 10 μM Olaparib before 25 μM MNNG; Western blot
binding [1],binding [2],binding [3],binding [4],Substance
binds,,,,"XRCC1, endogenous in HeLa cells (from UniProt P18887 1-633)"
,binds,,,"XRCC1, endogenous in LF-1 human fibroblasts (from UniProt P18887 1-633)"
binds,,,,p21 fused to GFP (p21-GFP) (from UniProt P38936 1-164)
,binds,binds,no binding,"p21^CDKN1A, endogenous in LF-1 human fibroblasts (from UniProt P38936 1-164)"
